Test system: CC(=O)N1Cc2ccccc2C[C@H]1C(=O)NCC(=O)N1C2CCCCC2C[C@H]1C(=O)N[C@@H](CCCNC(=N)N)C(=O)Nc1ccc2c(CC(N)=O)cc(=O)oc2c1
Test: Substrate activity at Granzyme B (unknown origin) expressed in Pichia pastoris incubated for 30 mins by fluorescence based assay
Details: Homo sapiens

Granzyme B (Homo sapiens) (letters omitted)
Not Active: Km | kcat | kcat/Km
